Out of some 310,000 compounds screened, about 14,000 (4.5%) showed an effect of 50% or more. Effects have a minus sign here. This is one part of the list.
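Also: peak tail current of the secondary pulse compared with the same well before compound.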

human ether-à-go-go-related gene (hERG) potassium channel, sequence (Q12809 whole entry, looked up): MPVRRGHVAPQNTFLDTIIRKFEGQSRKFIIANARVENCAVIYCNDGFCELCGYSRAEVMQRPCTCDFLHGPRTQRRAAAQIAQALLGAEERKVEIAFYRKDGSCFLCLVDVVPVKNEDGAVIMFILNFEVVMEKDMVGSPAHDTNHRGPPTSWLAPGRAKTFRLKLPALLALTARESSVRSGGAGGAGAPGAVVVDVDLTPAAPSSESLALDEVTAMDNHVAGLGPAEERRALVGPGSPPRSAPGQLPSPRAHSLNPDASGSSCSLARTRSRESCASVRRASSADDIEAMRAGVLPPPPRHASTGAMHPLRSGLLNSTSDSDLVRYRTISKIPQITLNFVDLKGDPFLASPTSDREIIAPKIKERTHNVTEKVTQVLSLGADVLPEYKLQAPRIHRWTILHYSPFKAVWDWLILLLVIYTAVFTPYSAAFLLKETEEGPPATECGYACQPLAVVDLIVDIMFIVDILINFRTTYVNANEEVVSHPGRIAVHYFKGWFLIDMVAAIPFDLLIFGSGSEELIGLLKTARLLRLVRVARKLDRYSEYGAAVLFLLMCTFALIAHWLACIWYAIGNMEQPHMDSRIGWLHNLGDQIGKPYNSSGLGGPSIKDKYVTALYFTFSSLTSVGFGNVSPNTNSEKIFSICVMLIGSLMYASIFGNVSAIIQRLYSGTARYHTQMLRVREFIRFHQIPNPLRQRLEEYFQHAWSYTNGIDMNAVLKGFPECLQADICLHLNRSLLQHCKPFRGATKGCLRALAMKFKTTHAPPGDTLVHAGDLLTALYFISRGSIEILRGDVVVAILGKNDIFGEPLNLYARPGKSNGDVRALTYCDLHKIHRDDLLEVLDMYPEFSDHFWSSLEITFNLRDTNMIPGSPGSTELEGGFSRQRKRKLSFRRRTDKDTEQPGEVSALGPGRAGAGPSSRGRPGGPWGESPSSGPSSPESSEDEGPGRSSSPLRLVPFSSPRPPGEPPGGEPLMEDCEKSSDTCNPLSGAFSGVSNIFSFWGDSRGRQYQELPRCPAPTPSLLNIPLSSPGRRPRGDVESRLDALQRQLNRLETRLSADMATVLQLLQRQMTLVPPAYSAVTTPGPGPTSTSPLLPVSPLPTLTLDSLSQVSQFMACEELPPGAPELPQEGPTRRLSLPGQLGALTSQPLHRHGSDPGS

The experiment addresses human ether-à-go-go-related gene (hERG) potassium channel (human, UniProt Q12809). The experiment in a line: primary screen, population patch clamp on CHO cells stably expressing hERG.
With `CC1=CC(=O)C(C(C)C)=C/C1=N/OC(=O)c1cccc([N+](=O)[O-])c1`, the “hERG current change (%, negative = inhibition) at 10uM” value is listed as 7.36%.

With `Cc1cccc(NC2=C(NC(=O)c3ccccc3)C(=O)c3ccccc3C2=O)c1`, the “hERG current change (%, negative = inhibition) at 10uM” value is -19.4%.

For the molecule `CN(C)C(=O)Cn1c(SCC(=O)Nc2ccc3c(c2)OCO3)nc2ccccc21`, the “hERG current change (%, negative = inhibition) at 10uM” value was 9.04%.

`Cc1ccnc(NC(=O)c2cc(-n3cnnc3)ccc2Cl)c1`: the “hERG current change (%, negative = inhibition) at 10uM” value was 15.5%.

With `COc1ccc(CN2CN(S(=O)(=O)c3cccs3)c3nc4ccccc4nc32)cc1`, the “hERG current change (%, negative = inhibition) at 10uM” value is recorded as -5.48%.

For the molecule `O=C1/C(=C\c2ccco2)SC(=S)N1C1CCCCC1`, the “hERG current change (%, negative = inhibition) at 10uM” value was 16.3%.

As to `CC(C)NC(=O)/C(C#N)=C\c1ccc(N(C)C)c(Br)c1`, the “hERG current change (%, negative = inhibition) at 10uM” value was determined as 8.22%.

As to `CC1CCCC(NC(=O)c2nn(C)c3c2CS(=O)(=O)c2ccccc2-3)C1C` (stereo not shown), the “hERG current change (%, negative = inhibition) at 10uM” value is -2.12%.

As for `On1c(-c2ccccc2)nc2ccccc21`, the “hERG current change (%, negative = inhibition) at 10uM” value is listed as 12.3%.

Regarding `Cc1oc(-c2cccc(F)c2)nc1CN1CCCCC1CCn1cccn1` (stereo not shown), the “hERG current change (%, negative = inhibition) at 10uM” value was -73.1%.

As to `O=C(OCc1cccnc1)C1=Cc2ccccc2OC1`, the “hERG current change (%, negative = inhibition) at 10uM” value is recorded as -64.9%.

In the case of `O=C(COc1ccccc1Cl)Nc1ccccc1C(=O)Nc1cccc(C(=O)O)c1`, the “hERG current change (%, negative = inhibition) at 10uM” value was 23.8%.

`O=C(O)C1C(c2ccccc2)C(C(=O)N2CCOCC2)C1c1ccccc1` (stereo not shown): the “hERG current change (%, negative = inhibition) at 10uM” value is on record as -7.48%.

As for `O=C(c1ccc(Cl)cc1Cl)c1ncc(C(F)(F)F)cc1Cl`, the “hERG current change (%, negative = inhibition) at 10uM” value is reported as -10.1%.

As for `CCN(C(=O)COC(=O)c1ccc(F)c(S(=O)(=O)N2CCOCC2)c1)C1CCS(=O)(=O)C1` (stereo not shown), the “hERG current change (%, negative = inhibition) at 10uM” value was -22.4%.

As for `Cc1cccc(-c2n[nH]c(=S)n2/N=C/c2ccc(C)o2)c1`, the “hERG current change (%, negative = inhibition) at 10uM” value came to 2.4%.

As for `Cc1c(NC(=O)COC(=O)C23CC4CC(CC(Br)(C4)C2)C3)c(=O)n(-c2ccccc2)n1C`, the “hERG current change (%, negative = inhibition) at 10uM” value is reported as 9.08%.

As to `CNc1ccc(S(=O)(=O)NC)cc1[N+](=O)[O-]`, the “hERG current change (%, negative = inhibition) at 10uM” value is 10.2%.

Take `Cc1ccc2nc(NC(=O)c3ccccn3)sc2c1`: the “hERG current change (%, negative = inhibition) at 10uM” value is 22.3%.

As to `CC(NC(=O)c1ccc(OC2CCN(Cc3ccccn3)CC2)cc1)c1nccs1` (stereo not shown), the “hERG current change (%, negative = inhibition) at 10uM” value is on record as -10.3%.

On to `CC(C)(C)c1cnnn1-c1ccc([N+](=O)[O-])cc1`, for which the “hERG current change (%, negative = inhibition) at 10uM” value was -8.46%.

For the molecule `CC(C)NC(=O)C(=O)NNC(=O)CCc1ccccc1`, the “hERG current change (%, negative = inhibition) at 10uM” value is reported as 8.29%.

For the molecule `CC(C)CNC(=O)NC(=O)COC(=O)c1cccc(NS(=O)(=O)c2ccc(F)c(F)c2)c1`, the “hERG current change (%, negative = inhibition) at 10uM” value is on record as -24.5%.

With `O=C(c1ccc(Cl)cc1)c1c[nH]c(C(=O)C(Cl)(Cl)Cl)c1`, the “hERG current change (%, negative = inhibition) at 10uM” value came to 13.5%.

As to `COc1ccc(CNC(=O)Cn2ccc(NC(=O)OCc3ccccc3)nc2=O)cc1`, the “hERG current change (%, negative = inhibition) at 10uM” value turned out to be 19.1%.

For `COc1ccccc1N=C1SC(C(=O)Nc2ccc(F)cc2)CC(=O)N1C` (stereo not shown), the “hERG current change (%, negative = inhibition) at 10uM” value is listed as -18.7%.

For the molecule `COc1ccc(/C=C2\SC(=S)N(CCCC(=O)Nc3ccccn3)C2=O)cc1OC`, the “hERG current change (%, negative = inhibition) at 10uM” value stood at 12.7%.

With `O=C1/C(=C/c2cccs2)SC(=S)N1c1cccc(O)c1`, the “hERG current change (%, negative = inhibition) at 10uM” value amounted to 11.2%.

For `CC(=O)NCCC(=O)Nc1nc(-c2ccc3c(c2)OCCO3)cs1`, the “hERG current change (%, negative = inhibition) at 10uM” value is -0.193%.

For `CCN(C(=O)c1cc2c(=O)[nH]c3ccc(C)cc3c2s1)c1ccccc1F`, the “hERG current change (%, negative = inhibition) at 10uM” value came out at 13%.

On to `CCC(=O)Nc1cccc(NC(=O)COc2ccc(OC)cc2)c1`, for which the “hERG current change (%, negative = inhibition) at 10uM” value is reported as -6.39%.

In the case of `O=C(O)c1cc(O)ccc1N=Nc1ccccc1`, the “hERG current change (%, negative = inhibition) at 10uM” value amounted to 18.5%.

For the molecule `O=C(Nc1ccccc1)c1ccc(-n2cnnn2)cc1`, the “hERG current change (%, negative = inhibition) at 10uM” value was 7.76%.

On to `CC(C)OC(=O)c1c(NC(=O)CCC(=O)O)sc2c1CCCCC2`, for which the “hERG current change (%, negative = inhibition) at 10uM” value turned out to be 8.16%.

In the case of `CC(=O)NS(=O)(=O)c1ccc(NC(=S)Nc2ccccc2)cc1`, the “hERG current change (%, negative = inhibition) at 10uM” value turned out to be 8.62%.

As for `COc1cccc(/C=N/NC(=O)C(=O)NCc2cccnc2)c1O`, the “hERG current change (%, negative = inhibition) at 10uM” value is -4.51%.

Turning to `CN1CCN(C(=O)C2=C[C@@H](c3ccc(Br)cc3)C[C@@H](OCc3ccc(CO)cc3)O2)CC1`, the “hERG current change (%, negative = inhibition) at 10uM” value was -39.1%.

Take `COc1cc(CNc2nnnn2C)cc(OC)c1OC`: the “hERG current change (%, negative = inhibition) at 10uM” value is given as 13.3%.

As to `c1ccc(C2OC3c4cccc5cccc(c45)C3N2c2ccccc2)cc1` (stereo not shown), the “hERG current change (%, negative = inhibition) at 10uM” value was determined as 10.9%.

Take `Cc1ccc(/C=C/C(=O)N2CCc3ccccc32)o1`: the “hERG current change (%, negative = inhibition) at 10uM” value is -7.87%.

`COc1ccc(OC)c(NC(=O)CCS(=O)(=O)c2cc3c(cc2C)NC(=O)CO3)c1`: the “hERG current change (%, negative = inhibition) at 10uM” value stood at 3.72%.

In the case of `O=c1[nH]c(=O)n([C@H]2C[C@H](O)[C@@H](CO)O2)cc1Br`, the “hERG current change (%, negative = inhibition) at 10uM” value turned out to be 12.7%.

For `O=C(NCCc1nc2ccccc2[nH]1)/C(=C/c1ccco1)NC(=O)c1ccc(Br)cc1`, the “hERG current change (%, negative = inhibition) at 10uM” value is recorded as -69.9%.

Consider `Cc1ccc(NC(=O)CN(C)Cc2ccc(Cl)cc2)cc1`, for which the “hERG current change (%, negative = inhibition) at 10uM” value was -8.48%.

As to `CCOc1ccc(N2CC(C(=O)Nc3cccc(C(=O)NC4CC4)c3)CC2=O)cc1` (stereo not shown), the “hERG current change (%, negative = inhibition) at 10uM” value turned out to be 1.39%.

With `O=C(O)c1cc(Cl)c(Cl)cc1C(=O)N1CCOCC1`, the “hERG current change (%, negative = inhibition) at 10uM” value amounted to 10.4%.

As to `O=C(N/N=C/C=C/c1ccco1)c1ccncc1`, the “hERG current change (%, negative = inhibition) at 10uM” value came out at 6.21%.

In the case of `CCCN(C(=O)c1cc(C)ccc1C)c1c(N)n(Cc2ccccc2)c(=O)[nH]c1=O`, the “hERG current change (%, negative = inhibition) at 10uM” value was 11.2%.

For the molecule `O=C(CSc1nc2nccnc2c(=O)n1Cc1cccs1)Nc1ccccc1`, the “hERG current change (%, negative = inhibition) at 10uM” value is on record as -74.9%.

As for `CCCN1CCN(C(=O)CS(=O)(=O)Cc2nc(-c3cccc(OC)c3)oc2C)CC1`, the “hERG current change (%, negative = inhibition) at 10uM” value is given as -14.8%.

For the molecule `O=C(NNC(=O)c1ccc(NC(=O)c2ccccc2)cc1)Nc1ccccc1`, the “hERG current change (%, negative = inhibition) at 10uM” value amounted to 15%.

On to `O=C(Cc1ccc(Cl)cc1Cl)NCC1(N2CCOCC2)CCCCC1`, for which the “hERG current change (%, negative = inhibition) at 10uM” value is 5.44%.

Regarding `CCn1cc(C(=O)NCCCN2CCC(C)CC2)c(=O)c2cc(S(=O)(=O)N3CCOCC3)ccc21`, the “hERG current change (%, negative = inhibition) at 10uM” value is -17.1%.

Take `COc1ccc(C(C(=O)NC2CCCC2)N(C(=O)c2snc(C(N)=O)c2N)C2CCCC2)cc1OC` (stereo not shown): the “hERG current change (%, negative = inhibition) at 10uM” value turned out to be 5.77%.

Regarding `Cc1ccc(S(=O)(=O)N(C)C)cc1NC(=O)C(C)[N+]12CCN(CC1)CC2.[Cl-]` (stereo not shown), the “hERG current change (%, negative = inhibition) at 10uM” value was 53.6%.

The values above are taken from paper PMC4336329 (PLoS ONE, 2015).
